Experimental data published in publication PMC12136788.
This is one part of the list.

B1: chr7:149068622:149068623:-_ENSMUSG00000025139_ENSMUST00000001950|mus_hu|mus_mus_mus_hu_False|38_38 (ssRNA)
RNA: GGGAGUUCUACAGUCCGACGAUCGUGAGGCCUCUGAGUGUGGCUUGUGGUCUGUCCUGGGUUAGAGUUGUUAAUAUCACGGAACAUACCAUCUAGAGAGGUUCUGCCCCGCCUGACACCUUCAUUCCCAAUGGAGAAGAAAUCCAACAGAGGAUUGAGCAUCA
B2: chr2:42509997:42509998:+_ENSG00000143924_ENST00000318522|hu_mus|hu_hu_hu_mus_True|48_48 (ssRNA)
RNA: GGGAGUUCUACAGUCCGACGAUCUCGCUGAGUCCUCUCCUCAUAAUUAAACAGGACUACCACUGAGGCGAUAAAAUAAACUAUCUCCCCGGUCGGAAGCAGGUAUACAUUCGCUCUACAGUCCUUUCCUCGAUAACCGUAUACCAACAGAGGAUUGAGCAUCA
B3: chr19:38862671:38862672:-_ENSMUSG00000024999_ENSMUST00000025963|mus_hu|FALSE|FALSE (ssRNA)
RNA: GGGAGUUCUACAGUCCGACGAUCUAUAAUCUAGUCACUGAAACACGCAUUUCUUAGGCCACUCCUAGAAUAUGGGAAUAGCUGUUACAUAAAAUACUGUUUUAUAAUUAUAUUAAUAAGAAAAAGCAUUUUACCUGUUCCAAGCAACAGAGGAUUGAGCAUCA
B4: chr7:141443734:141443735:+_ENSG00000106028_ENST00000265304|hu_hu|FALSE|FALSE (ssRNA)
RNA: GGGAGUUCUACAGUCCGACGAUCCCCCUUUUUCACAUAUUGAUAUGCCACGUCUCUGAGGCCUGGCCGGAAUACUGAUAUUCUGUGCCAUGUUGUCUUUUGACUGACAUCACCCAGUUGGUAAACUUCACUAUCCCCUGAUCGCAACAGAGGAUUGAGCAUCA
B5: chr1:33854737:33854738:-_ENSMUSG00000042197_ENSMUST00000044455|mus_mus|motif|central (ssRNA)
RNA: GGGAGUUCUACAGUCCGACGAUCGGUAACUUCCUCCUUUAAAAUUUAAGUGAAAAGAACUAACUAGUUUGUAUGCCCACGGAAAACCAUACAGAACCAAUCUGACCAAUUGAAUGACAUGCAUAAGAUAUACCCACAGUGACACAACAGAGGAUUGAGCAUCA
B6: chr7:141438946:141438947:+_ENSG00000106028_ENST00000265304|hu_mus|hu_hu_hu_mus_True|28_98 (ssRNA)
RNA: GGGAGUUCUACAGUCCGACGAUCGACGAAAUACCUGACAGGUCUUCCUUCGAAACAUGGCUUCUGUUUUUCUUACAACCUAAUCUUUAGGCUUUUCCUAAAGGAAAAACCCGAGCAAGAAAAAUGAUAAAUCAAGAAACUACACAACAGAGGAUUGAGCAUCA

Each binder was assayed against T1, UNK ZnF1-3 (human, UniProt Q9C0B0 31-174) (assay: nsRBNS (natural sequence RNA bind-n-seq); RBNS binding buffer (assumed for nsRBNS): 25 mM Tris pH 7.5, 150 mM KCl, 3 mM MgCl2, 0.01% Triton X-100, 500 ug/ml BSA, 20 U/ml SUPERase-In, 4 C; UNK is unkempt and MSI1 is Musashi-1; names of the RNAs are library labels; protein concentration not given here; high values mean tight binding).
T1 sequence: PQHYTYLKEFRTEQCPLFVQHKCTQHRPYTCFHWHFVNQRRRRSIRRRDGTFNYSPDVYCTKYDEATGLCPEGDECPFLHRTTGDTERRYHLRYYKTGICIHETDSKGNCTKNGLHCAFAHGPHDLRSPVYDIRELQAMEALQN

Question: How did the binding signal turn out when B1 was run?
Answer: 0.779 enrichment R

Question: B2 was tested. Which binding signal did it give?
Answer: 1.19 enrichment R

Question: With B3 as the binder, how does the binding signal read?
Answer: 1.02 enrichment R

Question: For B4, which binding signal is on record?
Answer: 0.7 enrichment R

Question: Which binding signal does the source give for B5 here?
Answer: 1.24 enrichment R

Question: For B6, which binding signal is on record?
Answer: 0.566 enrichment R
